About 12,000 (3.5%) of roughly 340,000 compounds were called active. The inconclusive results got no clear call from the source; some entries with a clear call stand among them for comparison. Calls follow the shape of the dose curve; as a rule, active = well fitted inhibition curve with a large enough effect; inconclusive = small, poorly fitted or top-dose-only effect, or another doubt; inactive = no such curve, though single readings can be large or run the other way. Potencies of inconclusive entries are left out as doubtful fits.
Experiment: qHTS Assay for Inhibitors of Hepatitis C Virus (HCV)
Settings: Huh7.5.1 HCVcc-Cre (HCVcc is cell-culture hepatitis C virus) infection, luciferase reporter, 44 h; series mostly up to 41.8 µM
How it was run: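 Compounds are dispensed onto cells plated 4 h earlier at 1,000 per well, with HCVcc-Cre virus (about 0.5 moi) added next. Following 44 h of culture, luminescent signal is measured for 15 sec after 15 min with substrate at room temperature.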
Potency is read from the fitted curve at half-maximal effect; tags tell the direction and shape of the fitted curve.

SMILES	Potency
Cc1ccc(NC(=S)N(CCCN2CCCC2)Cc2cccn2Cc2ccc(Cl)cc2)cc1C	inconclusive [inhibitor, full curve]
CN1C[C@@H]2[C@@H]3C(=O)N(C)C(=O)[C@@H]3[C@](Cc3ccccc3)(C1=O)N2C(=O)c1ccc(F)cc1	inactive
CC(NC(=O)c1cc(S(=O)(=O)N(C)C)ccc1Cl)C1CC2CCC1C2 (stereo not drawn)	inconclusive [inhibitor, single point]
CCN(CC)CCCn1c2c(c(SCC(=O)Nc3cccc4ccccc34)nc1=O)CCC2	inconclusive [inhibitor, single point]
c1ccc(CNc2ncnc3sc4c(c23)CCCC4)nc1	inconclusive [inhibitor, single point]
O=C(c1ccccc1)c1sc(N2CCOCC2)nc1-c1ccccc1	inactive
Cc1ccc(C(=O)Nc2cccnc2)cc1S(=O)(=O)N1CCCCC1	inconclusive [inhibitor, single point]
Brc1ccc(NC2=Nc3ccccc3CC2)cc1	inactive
O=C(CSc1nnc(C2CC2)n1-c1ccccc1)Nc1ccc(N2CCOCC2)cc1	inconclusive [inhibitor, single point]
COc1ccc(S(=O)(=O)N2CCCC2CNC(=O)C(=O)NCc2ccccn2)cc1 (stereo not drawn)	inactive
C=CCNC(=O)NC(=S)c1ccccc1	inactive
COC(CNC(=O)c1cnn2c(C)c(Cc3ccccc3)c(C)nc12)OC	inconclusive [inhibitor, single point]
CC(C)c1csc(CN2CCCC(CCC(=O)NCc3ccccc3F)C2)n1 (stereo not drawn)	inconclusive [inhibitor, single point]
Cc1ccccc1CNC(=O)C(=O)NCCC1CCCCN1S(=O)(=O)c1ccccc1 (stereo not drawn)	inconclusive [inhibitor, single point]
CCCc1ccc(S(=O)(=O)N(C)S(=O)(=O)c2ccc(F)cc2)cc1	inactive
Cc1cccc(N/C(N)=N/c2nc(C)cc(C)n2)c1	inconclusive [inhibitor, single point]
COc1ccc(NC(=O)CSc2nc3ccccc3c(=O)n2CCCN2CCOCC2)c(OC)c1	inactive
CN(CC(=O)Nc1ccccc1Cl)C(=O)c1ccc(N2C(=O)CCC2=O)cc1	inactive
COC(=O)C1=C(C)NC(=S)NC1c1ccc(-c2ccccc2C(=O)OC)o1 (stereo not drawn)	inconclusive [inhibitor, partial curve]
NC1=NC(=O)/C(=C/c2c(OS(=O)(=O)c3ccc(Cl)cc3)ccc3ccccc23)S1	inconclusive [inhibitor, partial curve]
CCN(CC)S(=O)(=O)c1ccc(Cl)c(NC(=O)COC(=O)c2c(C)noc2C)c1	inconclusive [inhibitor, partial curve]
COC(=O)c1[nH]c2ccccc2c1NC(=O)CN1CCCCCC1	inconclusive [inhibitor, partial curve]

SMILES	Potency
Cc1cc(NC(=O)C2CCN(S(=O)(=O)c3c(C)noc3C)CC2)ccc1Br	inactive
CC(=O)c1cnc(Nc2cccc(C)c2)s1	inconclusive [inhibitor, single point]
O=C(CCc1ccc(S(=O)(=O)NCCc2ccccc2)cc1)Nc1ccc2c(c1)OCO2	inconclusive [inhibitor, full curve, poor fit]
C=CCn1c(SC)nc2sc3c(c2c1=O)CCc1ccccc1-3	inconclusive [inhibitor, partial curve]
CCc1ccc2oc(C(=O)NCC(c3ccc(OC)cc3)N3CCCCC3)c(C)c2c1 (stereo not drawn)	inconclusive [inhibitor, partial curve]
Cc1cccc(-c2cc(C(=O)NCc3ccccn3)c3ccccc3n2)c1	inconclusive [inhibitor, full curve]
O=C(CN1CCSC1=NCc1ccccc1)c1ccc(Cl)c(Cl)c1	inconclusive [inhibitor, single point]
COc1cc([N+](=O)[O-])ccc1NC(=O)CC(C)C	inconclusive [inhibitor, single point]
COc1ccc(Nc2nc(C(=O)NCc3ccco3)cs2)cc1	inconclusive [inhibitor, single point]
NC(=O)CSc1nnc(-c2ccc(S(=O)(=O)N3CCCC3)cc2)o1	inactive
COc1cccc(NCc2cc3c(C(C)(C)C)nn(-c4ccccc4)c3[nH]c2=O)c1	inconclusive [inhibitor, partial curve]
CCc1cc2c(=O)nc3n(c2s1)Cc1ccccc1/C3=C(/O)c1ccccc1Cl	inconclusive [inhibitor, full curve]
CCOc1ccc(S(=O)(=O)N2CCOCC2)cc1NC(=O)c1ccccc1F	inconclusive [inhibitor, full curve]
c1ccc2c(c1)[nH]c1nc(SCCN3CCOCC3)nnc12	inconclusive [inhibitor, single point]
CCOC(=O)c1c(NC(=O)CS(=O)(=O)c2cn(CC)c3ccccc23)sc2c1CCCCC2	inconclusive [inhibitor, partial curve]
COc1ccc2nc3oc(C(=O)Nc4ccc(OC)c(OC)c4)cc3cc2c1	inconclusive [inhibitor, partial curve]
CCc1c(C)nc(SCC(=O)Nc2ccc3c(c2)OCCO3)[nH]c1=O	inactive
Cc1ccc(-c2cc(N)nc(-c3ccccc3)c2)cc1	inconclusive [inhibitor, single point]
Cc1cc(=O)oc2c3c(cc(OCC(=O)Nc4ccc(CCO)cc4)c12)OC(C)(C)CC3	active: 0.708 µM
O=C1OCCN1C(=O)[C@H]1[C@H](c2ccc([N+](=O)[O-])cc2)C(c2cccc(Cl)c2)=NN1c1ccccc1	inconclusive [inhibitor, single point]
O=C1C=C(c2ccc(O)cc2)C[C@@H](c2ccc3c(c2)OCO3)C1	inconclusive [inhibitor, partial curve]
